Results as given in PubChem BioAssay AID1745845 (National Center for Advancing Translational Sciences (NCATS), 2022).
Hit rate of the full screen: of about 360,000 compounds, about 2,600 (0.72%) were called active. Inconclusive results, whose numbers are uncertain, are shown with a selection of clear calls. The call rests on the fitted dose curve; in most records, active means well fitted inhibition curve with a large enough effect; inconclusive means small, poorly fitted or top-dose-only effect; inactive means no such curve, though single readings can be large or run the other way. Potencies beside an inconclusive call are fits to weak or partial responses and may not hold up.

Test: Primary qHTS for Inhibitors of ATXN expression; further: nearly all actives have a fitted effect of over 55% in size
Details: HEK-293 ATXN2-luciferase reporter, luminescence, 24 h; activity change, negative = inhibition: at 57 µM (top of the series)
Procedure, shortened: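 ATXN2-luciferase reporter cells (luciferase flanked by upstream and downstream ATXN2 gene portions) were treated 24 h at 37 °C with compounds at up to 57 uM. SteadyGlo luminescence gave expression; GF-AFC fluorescence gave viability.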
On the % scale 0 is the no-effect control and ±100 the full control effect; potency means the concentration at half of the fitted maximal effect; tags describe the fitted curve by direction and shape.

| Structure (SMILES) | Potency | activity change, negative = inhibition |
| --- | --- | --- |
| Oc1ccccc1Nc1nc(NCc2ccccc2)c2ccccc2n1 | inconclusive: 23.8 µM [inhibitor, partial curve, poor fit] | – |
| CC(=O)Nc1ccc(Nc2nc(C)c([N+](=O)[O-])c(N(C)c3ccccc3)n2)cc1 | inconclusive: 37.7 µM [inhibitor, single point] | – |
| Cc1cc([N+](=O)[O-])cc(/C=N\NC(=O)C2COc3ccccc3O2)c1O (stereo not drawn) | inconclusive: 28.2 µM [inhibitor, partial curve] | – |
| Cc1nn(C)c(-c2n[nH]c(=S)n2-c2ccccc2)c1Cl | – | inactive: 25.9% |
| CN1CCN(C(c2cccc(C(F)(F)F)c2)c2nnnn2Cc2ccccc2)CC1 (stereo not drawn) | – | inactive: -8.1% |
| Cc1ccc(C(=O)C[n+]2cccc3cc(C)ccc32)cc1 | inconclusive: 2.38 µM [inhibitor, full curve] | – |
| O=C(Nc1cccc(S(=O)(=O)N2CCCCCC2)c1)C1CCN(C(=O)c2ccc(Cl)cc2)CC1 | inconclusive: 31.6 µM [inhibitor, single point] | – |
| CC(C)C[C@@H](C=O)NC(=O)[C@H](CC(C)C)NC(=O)[C@H](CC(C)C)NC(=O)OCc1ccccc1 | active: 1.09 µM | – |
| CN(C(=O)CSc1nc2ccc(NC(=O)c3ccco3)cc2s1)c1ccccc1 | inconclusive: 39.8 µM [inhibitor, single point] | – |
| CCCCN(CC)Cc1ccc(CNC(=O)Nc2ccc(Cl)cc2)o1 | inconclusive: 10 µM [inhibitor, partial curve] | – |
| COc1cc(/C=N/O)cc(Br)c1OCc1ccc(Cl)cc1 | inconclusive: 39.8 µM [inhibitor, partial curve, poor fit] | – |
| Cc1ccccc1C(=O)Nc1nnc(SCC(=O)NC2CC2)s1 | inconclusive: 39.8 µM [inhibitor, single point] | – |
| CCCN1CCN(CCCNC(=O)c2cc3c(=O)[nH]c4ccccc4c3s2)CC1 | inconclusive: 39.8 µM [inhibitor, single point] | – |
| Nc1c(C(=O)N2CCOCC2)sc2nc3c(cc12)CCCC3 | active: 3.16 µM | – |
| CCc1ccc(Nc2nnc(SCC(=O)Nc3cccnc3Cl)s2)cc1 | – | inactive: -0.136% |
| N#CC(C#N)=C1C=CC=CN1/C(=C\c1ccco1)C(=O)c1ccc(Cl)cc1 | inconclusive: 8.91 µM [inhibitor, partial curve] | – |
| CCc1ccc(NC(=O)CS(=O)CC(=O)NCCCc2ccccc2)cc1 (stereo not drawn) | inconclusive: 14.1 µM [inhibitor, partial curve] | – |
| CCc1sc(C(=O)Nc2cccc(-n3cnnn3)c2)cc1C | inconclusive: 1.78 µM [inhibitor, partial curve, poor fit] | – |
